# Laboratory results from the supplement of paper PMC8728848.
# This is one part of the list.
# B1: HFR-1 (Triticum aestivum) (protein)
# chain: MSPQSFTLETTTTTPAAKGSDPSYFQSAPACHEMIQHKELLLHLYAYQNVQKTPDANQAVIVESKRPECFGILAANDWTVYDGPAHNANLVAHAQGLHLGASMAKENWFICFNMVFVNQRFTGSSFKVMGDFQGTAHNGEWAIVGGTGEFAYAQGVIAFKKTQQSERNARMELHVRAMCLSFLRPLLSLGDGSAVAKIGPWGKMSGELLDIPSTPQRLERITIRHGVVIDSLAFSFIDKAGEPYNVGPWGGRRGDNKDTIELAPSEIVTEVSGTVGIFAEDNVEYNAIASLTITTNHRPYGPFGETQSTPFSVPVQDNNNIVGFFACAGKYVEALGVYVRSPVST
# Experiments:
# Assay in all cases: glycan array binding signal (z-score within array); higher = stronger binding
# Conditions in all cases: glycan notation: IUPAC condensed, linker removed
# [1] = molecular target: GlcNAc(b1-3)[GlcNAc(b1-6)]GalNAc
# In short: (§1)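 The binding signal is a Z-score computed within each array and averaged over linkers. Arrays of the same protein sequence at different concentrations or buffers were also averaged together. Data originate from 3228 arrays in the Consortium for Functional Glycomics database, kept only where the protein sequence was available.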
# [2] = molecular target: GlcNAc(b1-4)Gal(b1-4)GlcNAc
# In short: as §1
# GlcNAc(b1-4)GlcNAc = molecular target: GlcNAc(b1-4)GlcNAc
# In short: as §1
# [3] = molecular target: GlcNAc(b1-4)GlcNAc(b1-4)GlcNAc
# In short: as §1
# [4] = molecular target: GlcNAc(b1-4)GlcNAc(b1-4)GlcNAc(b1-4)GlcNAc(b1-4)GlcNAc
# In short: as §1
# [5] = molecular target: GlcNAc(b1-4)GlcNAc(b1-4)GlcNAc(b1-4)GlcNAc(b1-4)GlcNAc(b1-4)GlcNAc
# In short: as §1
# [6] = molecular target: GlcNAc(b1-4)[GlcNAc(b1-6)]GalNAc
# In short: as §1
# [7] = molecular target: GlcNAc(b1-6)Gal(b1-4)GlcNAc
# In short: as §1
# GlcNAc(b1-6)GalNAc = molecular target: GlcNAc(b1-6)GalNAc
# In short: as §1
# GlcNAc3Prop(b1-4)GlcNAc = molecular target: GlcNAc3Prop(b1-4)GlcNAc
# In short: as §1
# Kdn(a2-3)Gal(b1-3)GlcNAc = molecular target: Kdn(a2-3)Gal(b1-3)GlcNAc
# In short: as §1
# Kdn(a2-3)Gal(b1-4)GlcNAc = molecular target: Kdn(a2-3)Gal(b1-4)GlcNAc
# In short: as §1
# [8] = molecular target: Man(a1-2)Man(a1-2)Man(a1-3)Man
# In short: as §1
# [9] = molecular target: Man(a1-2)Man(a1-2)Man(a1-6)[Man(a1-3)]Man
# In short: as §1
# Man(a1-2)Man(a1-3)Man = molecular target: Man(a1-2)Man(a1-3)Man
# In short: as §1
# [10] = molecular target: Man(a1-2)Man(a1-3)[Man(a1-2)Man(a1-6)]Man
# In short: as §1
# [11] = molecular target: Man(a1-2)Man(a1-3)[Man(a1-2)Man(a1-6)]Man(a1-6)[Man(a1-2)Man(a1-2)Man(a1-3)]Man
# In short: as §1
# [12] = molecular target: Man(a1-2)Man(a1-3)[Man(a1-2)Man(a1-6)]Man(a1-6)[Man(a1-2)Man(a1-2)Man(a1-3)]Man(b1-4)GlcNAc(b1-4)GlcNAc
# In short: as §1
# [13] = molecular target: Man(a1-2)Man(a1-3)[Man(a1-6)]Man(a1-6)[Man(a1-2)Man(a1-3)]Man(b1-4)GlcNAc(b1-4)GlcNAc
# In short: as §1
# [14] = molecular target: Man(a1-2)Man(a1-6)[Man(a1-3)]Man(a1-6)[Man(a1-2)Man(a1-2)Man(a1-3)]Man
# In short: as §1
# [15] = molecular target: Man(a1-2)Man(a1-6)[Man(a1-3)]Man(a1-6)[Man(a1-2)Man(a1-2)Man(a1-3)]Man(b1-4)GlcNAc(b1-4)GlcNAc
# In short: as §1
# Man(a1-3)[Man(a1-6)]Man = molecular target: Man(a1-3)[Man(a1-6)]Man
# In short: as §1
# [16] = molecular target: Man(a1-3)[Man(a1-6)]Man(a1-6)[Man(a1-2)Man(a1-3)]Man(b1-4)GlcNAc(b1-4)GlcNAc
# In short: as §1
# [17] = molecular target: Man(a1-3)[Man(a1-6)]Man(a1-6)[Man(a1-3)]Man
# In short: as §1
# [18] = molecular target: Man(a1-3)[Man(a1-6)]Man(a1-6)[Man(a1-3)]Man(b1-4)GlcNAc(b1-4)GlcNAc
# In short: as §1
# [19] = molecular target: Man(a1-3)[Man(a1-6)]Man(b1-4)GlcNAc(b1-4)GlcNAc
# In short: as §1
# Man(a1-6)Man = molecular target: Man(a1-6)Man
# In short: as §1
# Man(b1-4)GlcNAc = molecular target: Man(b1-4)GlcNAc
# In short: as §1
# Neu5Ac(a2-3)Gal = molecular target: Neu5Ac(a2-3)Gal
# In short: as §1
# [20] = molecular target: Neu5Ac(a2-3)Gal(b1-3)GalNAc
# In short: as §1
# [21] = molecular target: Neu5Ac(a2-3)Gal(b1-3)GalNAc(b1-3)Gal(a1-4)Gal(b1-4)Glc
# In short: as §1
# [22] = molecular target: Neu5Ac(a2-3)Gal(b1-3)GalNAc(b1-3)Gal(b1-4)GlcNAc
# In short: as §1
# [23] = molecular target: Neu5Ac(a2-3)Gal(b1-3)GalNAc(b1-4)[Neu5Ac(a2-3)]Gal(b1-4)Glc
# In short: as §1
# [24] = molecular target: Neu5Ac(a2-3)Gal(b1-3)GalNAc6S
# In short: as §1
# [25] = molecular target: Neu5Ac(a2-3)Gal(b1-3)GlcNAc
# In short: as §1
# [26] = molecular target: Neu5Ac(a2-3)Gal(b1-3)GlcNAc(b1-3)Gal(b1-3)GlcNAc
# In short: as §1
# [27] = molecular target: Neu5Ac(a2-3)Gal(b1-3)GlcNAc6S
# In short: as §1
# [28] = molecular target: Neu5Ac(a2-3)Gal(b1-3)[Fuc(a1-4)]GlcNAc
# In short: as §1
binder,measurement,setting,value
B1,glycan array binding signal (z-score),[1],-0.19
same,glycan array binding signal (z-score),[2],-0.234
same,glycan array binding signal (z-score),GlcNAc(b1-4)GlcNAc,-0.156
same,glycan array binding signal (z-score),[3],-0.22
same,glycan array binding signal (z-score),[4],-0.185
same,glycan array binding signal (z-score),[5],-0.164
same,glycan array binding signal (z-score),[6],-0.229
same,glycan array binding signal (z-score),[7],-0.189
same,glycan array binding signal (z-score),GlcNAc(b1-6)GalNAc,0.023
same,glycan array binding signal (z-score),GlcNAc3Prop(b1-4)GlcNAc,-0.189
same,glycan array binding signal (z-score),Kdn(a2-3)Gal(b1-3)GlcNAc,-0.2
same,glycan array binding signal (z-score),Kdn(a2-3)Gal(b1-4)GlcNAc,-0.228
same,glycan array binding signal (z-score),[8],-0.193
same,glycan array binding signal (z-score),[9],-0.227
same,glycan array binding signal (z-score),Man(a1-2)Man(a1-3)Man,-0.113
same,glycan array binding signal (z-score),[10],-0.09
same,glycan array binding signal (z-score),[11],-0.213
same,glycan array binding signal (z-score),[12],0.005
same,glycan array binding signal (z-score),[13],4.19
same,glycan array binding signal (z-score),[14],-0.214
same,glycan array binding signal (z-score),[15],-0.076
same,glycan array binding signal (z-score),Man(a1-3)[Man(a1-6)]Man,4.93
same,glycan array binding signal (z-score),[16],6.43
same,glycan array binding signal (z-score),[17],7.26
same,glycan array binding signal (z-score),[18],7.87
same,glycan array binding signal (z-score),[19],5.48
same,glycan array binding signal (z-score),Man(a1-6)Man,2.03
same,glycan array binding signal (z-score),Man(b1-4)GlcNAc,-0.226
same,glycan array binding signal (z-score),Neu5Ac(a2-3)Gal,-0.215
same,glycan array binding signal (z-score),[20],-0.162
same,glycan array binding signal (z-score),[21],-0.229
same,glycan array binding signal (z-score),[22],-0.229
same,glycan array binding signal (z-score),[23],-0.223
same,glycan array binding signal (z-score),[24],-0.218
same,glycan array binding signal (z-score),[25],-0.207
same,glycan array binding signal (z-score),[26],-0.219
same,glycan array binding signal (z-score),[27],-0.033
same,glycan array binding signal (z-score),[28],-0.221
